Consider three molecules from US20210238298A1 (ALLIGATOR BIOSCIENCE, published 2021).

Numbering of substitutions follows the chain as printed.

The target in assay [1] is T1, CTLA-4 (BMS, Orencia) (human, UniProt P16410 38-152). Put plainly: cell-based or functional assay.
Assay [2] concerns the target T2, Human OX40 (R&D systems, #3358_OX) (human, UniProt P43489 29-216).
T2 construct: Bought; Several catalogue numbers are given for it; also called human OX40 (R&D Systems, 3388-OX); OX40-Fc (R&D systems, #3358_OX); not shown: Fc part
T2 sequence: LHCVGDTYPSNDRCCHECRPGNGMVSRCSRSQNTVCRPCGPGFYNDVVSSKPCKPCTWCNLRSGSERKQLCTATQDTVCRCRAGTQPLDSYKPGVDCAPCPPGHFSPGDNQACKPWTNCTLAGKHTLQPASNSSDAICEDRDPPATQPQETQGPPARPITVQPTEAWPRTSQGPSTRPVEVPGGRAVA
Put plainly: SPR (Biacore), immobilised human OX40. As for the experimental part: Human OX40 (R&D systems, #3358_OX) was immobilized to the Biacore™ sensor chip, CM5, using conventional amine coupling. The tested antibodies and controls (serially diluted ⅓ or ½ 100-2 nM) were analyzed for binding in HBS-P (GE, #BR-1003-68) at a flow rate of […]. The association was followed for 3 minutes and the dissociation for 20 minutes. Regeneration was performed twice using 50 mM NaOH for 30 seconds. The kinetic parameters and the affinity constants were calculated using 1:1 Langmuir model with drifting baseline.

Assay [3] concerns the target T1, CTLA-4 (BMS, Orencia). Briefly: cell-based or functional assay. This is another data set of the same source.
The target in assay [4] is T2, Human OX40 (R&D systems, #3358_OX). Briefly: dual ELISA: OX40-Fc coated, bispecific molecule in dilutions, biotinylated CTLA-4 (1 ug/ml), HRP-streptavidin; the signal needs both bindings at once. As for the experimental part:
The ELISA plates were washed with PBST and then blocked with PBST+2% BSA for 1 h at room temperature and then washed again with PBST. […] SuperSignal Pico Luminescent was used as substrate and luminescence was measured using Fluostar Optima.

T1 sequence (P16410 38-152 limits assumed): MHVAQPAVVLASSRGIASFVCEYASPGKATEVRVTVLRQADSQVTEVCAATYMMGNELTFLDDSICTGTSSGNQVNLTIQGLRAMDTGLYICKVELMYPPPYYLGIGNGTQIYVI

B1: bispecific molecule 1164/1141 (OX40 x CTLA-4) (bispecific antibody)
heavy: EVQLLESGGGLVQPGGSLRLSCAASGFTFYGSSMYWVRQAPGKGLEWVSGIYSSGGYTSYADSVKGRFTISRDNSKNTLYLQMNSLRAEDTAVYYCARGVPHGYFDYWGQGTLVTVSS[… human IgG1 constant region …]
light: not shown
Consider B1, for which, in assay [1], the “Mean IL-2 level (pg/ml) induced at 1.5 nM” value (shortened to “Mean IL-2 level”) is 5020 pg/mL. In assay [2], this molecule displayed a Kd of 1.94 nM, a dissociation rate constant (koff) of 0.000172 s⁻¹ and a kon of 88700 M⁻¹ s⁻¹. The “Fold change in IL-2 level induced by bispecific molecule compared to the corresponding combination of the monospecific molecules at 1.5 nM” value in assay [3] came to 7.6 fold. Moreover, the “EC50 (read off the curve)” value in assay [4] is about 0.6 nM.

B2: bispecific molecule 1542/1141 (OX40 x CTLA-4) (bispecific antibody)
heavy: B1 heavy with Y30G, G31S, Y52G, S53Y, S54Y, G55S, G56Y, Y57S, V100Y, G103H
light: not shown
On to B2, for which the “Mean IL-2 level” value in assay [1] stood at 2670 pg/mL.

B3: bispecific molecule 1168/1141 (OX40 x CTLA-4) (bispecific antibody)
heavy: B1 heavy with Y30S, Y35S, G50S, Y52S, S53Y, S54Y, S59Y, G99Y, V100F, G103Y
light: not shown
On to B3, for which the “Mean IL-2 level” value in assay [1] is 2680 pg/mL. In assay [2], this molecule had a dissociation constant (Kd) of 1.07 nM, a koff of 0.000305 s⁻¹ and a kon of 284000 M⁻¹ s⁻¹. In assay [3], the “Fold change in IL-2 level induced by bispecific molecule compared to the corresponding combination of the monospecific molecules at 1.5 nM” value was 7.2 fold. Further, the half-maximal effective concentration (EC50 (read off the curve)) in assay [4] is about 0.5 nM.
